From PubChem BioAssay AID761 (NMMLSC, 2007)
In all, about 190,000 compounds went through this assay and about 400 (0.21%) were called active. The inconclusive results got no clear call from the source; some entries with a clear call stand among them for comparison.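 Rule for the calls: active = percent activity GTP binding at least 20 points away from the 100% baseline, either down as inhibitor or up as activator; inconclusive = compound flagged as likely green fluorescent from well-wide comparison; inactive = the rest.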

Target: Cell division control protein 42 homolog (Homo sapiens) (UniProt P60953)
Assay: wildtype Cdc42 fluorescent GTP binding changes, either direction – biochemical, multiplex bead flow cytometry, Bodipy-GTP, primary screen (AID 761);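 note: median bead fluorescence of bound Bodipy-FL-GTP at 100 nM; 0% = excess unlabeled GTP control and 100% = no compound control; below 100% means less GTP binding so inhibitor and above means activator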
Details: GST-Cdc42 beads, at 10 µM, actives lie on both sides

UniProt P60953, sequence (P60953 whole entry, looked up): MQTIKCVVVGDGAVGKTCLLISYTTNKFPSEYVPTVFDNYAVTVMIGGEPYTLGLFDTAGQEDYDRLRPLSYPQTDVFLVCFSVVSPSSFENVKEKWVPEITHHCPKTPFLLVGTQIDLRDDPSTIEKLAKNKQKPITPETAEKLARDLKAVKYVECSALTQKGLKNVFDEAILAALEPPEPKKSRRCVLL

Row | Compound | percent activity (GTP binding)
1 | CCOC(=O)CCc1c(C)nc(SCC(=O)O)c(C#N)c1C | inconclusive: 104%
2 | COc1ccccc1N1CCN(C(c2ccccc2Cl)c2nnnn2C(C)(C)C)CC1 (centres undefined) | inconclusive: 86%
3 | CCCn1nc([N+](=O)[O-])c(C(C#N)c2nc3ccccc3o2)c(Cl)c1=O (centres undefined) | inactive: 96%
4 | Cn1nc(C(F)(F)F)c(C(=O)Nc2cccc(Cl)c2)c1Cl | inconclusive: 97%
5 | O=C(CSc1ncc(-c2ccc(F)cc2)n1Cc1ccco1)Nc1ccc2c(c1)OCO2 | inconclusive: 85%
6 | O=C(COC(=O)c1cccs1)NC1CCCCC1 | inconclusive: 111%
7 | O=c1[nH]c2sc3c(c2c2nncn12)CCCC3 | active: 79%
8 | C=C(C)Cn1c(-c2ccncc2)n[nH]c1=S | inconclusive: 87%
9 | CCOC(=O)c1c[nH]c2nc(C)ccc2c1=O | inconclusive: 91%
10 | COc1ccc(-c2ncncc2-c2csc(C)n2)c(O)c1OC | inconclusive: 105%
11 | C/C(=N\N=C1\NC(=O)C(CC(=O)Nc2ccc(Cl)cc2)S1)c1ccco1 (centres undefined) | inconclusive: 86%
12 | Cc1[nH]n(-c2ccc([N+](=O)[O-])cc2)c(=O)c1C=NCCN1CCN(C(=O)c2cccc(F)c2)CC1 | inconclusive: 103%
13 | COc1ccccc1OCC(=O)NCCSCc1cccc(Cl)c1 | inactive: 98%
14 | O=C1CN(C(=O)Cn2ncc(Cl)c(Cl)c2=O)c2ccccc2N1 | inactive: 96%
15 | COc1cnc(-c2ccccn2)nc1Sc1ccc(Cl)cc1 | inconclusive: 107%
16 | Cc1ccc(Cl)cc1NC(=O)COC(=O)CC(C)(C)C | inactive: 90%
17 | CCOC(=O)c1cc2sc(C)cc2n1CC(=O)Nc1ccc2c(c1)OCCO2 | inconclusive: 98%
18 | O=C(CO/N=C1\CCCc2nonc21)Nc1ccc(Br)cc1 | inconclusive: 100%
19 | O=C(NCc1cccs1)C1CC(=O)N(c2ccc(Cl)cc2)C1 (centres undefined) | inactive: 98%
20 | Cc1nn(CC(=O)NCc2cc3ccccc3[nH]2)c(C)c1[N+](=O)[O-] | inactive: 99%

Row | Compound | percent activity (GTP binding)
21 | COc1ccc(N2CCN(C(=O)c3ccc4c(=O)n(CC5CCCO5)c(=O)[nH]c4c3)CC2)cc1 (centres undefined) | inconclusive: 100%
22 | Cc1cc(NC(=O)Cn2nc([N+](=O)[O-])c(Br)c2C)no1 | inactive: 95%
23 | CC(=O)Nc1ccc(/C=C/c2ccc3c([N+](=O)[O-])cccc3n2)cc1 | inactive: 93%
24 | Cc1cc(C)n2nc(SCCOc3ccccc3F)nc2n1 | active: 66%
25 | O=C1CC(C(=O)NC2CCCCC2)C2(CCCCC2)O1 (centres undefined) | inactive: 96%
26 | Cc1cc(C)nc(SCC(=O)c2c(N)n(C)c(=O)n(C)c2=O)n1 | inconclusive: 99%
27 | CC(=O)Nc1ccc(/C=N/NC(=O)CCN2CCN(c3ccccc3)CC2)cc1 | active: 76%
28 | CCN(CC)CC(=O)Nc1ccc2c(c1)Nc1ccccc1CC2 | inconclusive: 106%
29 | CC(=O)Cn1nnc2sc(-c3ccccc3)cc2c1=O | inactive: 98%
30 | CC(=O)NC1C(Oc2ccc3c(C)cc(=O)oc3c2)OC(COC(C)=O)C(OC(C)=O)C1OC(C)=O (centres undefined) | inactive: 103%
31 | O=C(Nc1cccc(Cl)c1)Nc1ccnc(-c2cccnc2)n1 | active: 64%
32 | COc1ccc(C(=O)NC(=S)NNC(=O)CNC(=O)C2CCCCC2)cc1 | inconclusive: 89%
33 | Nc1c(C(=O)NC2CC2)sc2nc3c(c(-c4ccco4)c12)CC/C3=C/c1ccco1 | inconclusive: 90%
34 | Cn1cc([C@@H]2C[C@H]3CN(Cc4cccc(Cl)c4)C(=O)[C@]34CCCN24)c2ccccc21 | inconclusive: 111%
35 | O=C1C=C(N(CCO)Cc2ccccc2)c2ccccc2C1=O | inconclusive: 93%
36 | NC(=O)COC(=O)CSc1ccc2ccccc2c1 | inactive: 89%
37 | COc1ccc(C(C)=O)cc1COC(=O)c1ccc(S(=O)(=O)N(C)C)cc1 | inactive: 98%
38 | CC1(/[N+]([O-])=C/c2ccccc2F)CCCCC1=O (centres undefined) | inactive: 96%
39 | COC(=O)Cc1csc(NC(=O)CSc2nnc3ccccn23)n1 | inconclusive: 93%
40 | CC(Oc1ccccc1)C(=O)N1CCN=C1SCc1ccccc1 (centres undefined) | inactive: 98%

Row | Compound | percent activity (GTP binding)
41 | COc1cccc(-n2c(SCC(=O)NC3CCCCC3)nc3n[nH]c(C)c3c2=N)c1 | inconclusive: 88%
42 | OCCC1CN(Cc2cnc(-c3cccc4ccccc34)nc2)CCN1C1CCCCC1 (centres undefined) | inactive: 97%
43 | N#Cc1c(OCC(=O)c2ccccc2)nc2c(c1-c1ccco1)CCc1ccccc1-2 | inconclusive: 104%
44 | Cc1ccc(CN2CCN(Cc3cn[nH]c3C3CCCCC3)CC2CCO)cc1 (centres undefined) | inactive: 97%
45 | CC(=O)CSc1nnc(-c2ccncc2)n1C | inconclusive: 105%
46 | O=C(c1ccc2c(c1)OCO2)C1CCCN(C2CCN(CCc3ccccc3)CC2)C1 (centres undefined) | inactive: 96%
47 | CCOC(=O)C1(CCc2ccccc2)CCN(Cc2cccc3nccnc23)CC1 | inactive: 95%
48 | CCc1ccc2[nH]c3nc(SCc4nnc(-c5ccc(C)cc5)o4)nnc3c2c1 | inconclusive: 103%
49 | Cc1cc(C)cc(N(C(=O)CCC(=O)Nc2cc(C)on2)C(C(=O)NC2CCCC2)c2ccco2)c1 (centres undefined) | inconclusive: 95%
50 | N#Cc1ccc(OCC(=O)NCCc2ccc(S(N)(=O)=O)cc2)cc1 | inconclusive: 104%
51 | CCOC(=O)C1C(=O)OC(C)(C)C1C(C)C(=O)c1ccc(C)cc1C (centres undefined) | inconclusive: 95%
52 | COCc1cc(C)nc2sc(C(=O)Nc3nccs3)c(N)c12 | inconclusive: 79%
53 | Cc1ccc(S(=O)(=O)NCC(=O)OC(C)C(=O)Nc2ncc(Cl)cc2Cl)cc1 (centres undefined) | inconclusive: 97%
54 | CCn1c(=O)cc(OCC(=O)NCCCN2CCN(c3cccc(Cl)c3)CC2)c2ccccc21 | inconclusive: 90%
55 | CC(C)NC(=O)CSc1nnc(-c2ccncc2)n1-c1ccccc1 | inconclusive: 106%
56 | O=S(=O)(NC1CCCC1)c1cccc(S(=O)(=O)N2CCC(n3nnc4ccccc43)CC2)c1 | inconclusive: 100%
57 | CCCCCOc1ccc(NC(=O)C(=O)NCCC2=CCCCC2)cc1 | inconclusive: 109%
58 | COc1ccc([N+](=O)[O-])cc1-n1cnnn1 | inactive: 97%
59 | CC1(C(=O)OCc2cc(=O)n3cc(Br)ccc3n2)CC1(Cl)Cl (centres undefined) | inactive: 96%
